According to PubChem BioAssay AID1508623 (National Center for Advancing Translational Sciences (NCATS), 2021):
The campaign covered roughly 48,000 compounds. About 450 (0.94%) were called active. Roughly 19% stayed inconclusive and do not appear here. The call rests on the fitted dose curve; in most records, active means well fitted inhibition curve with a large enough effect; inconclusive means small, poorly fitted or top-dose-only effect; inactive means no such curve, though single readings can be large or run the other way. The list shows a part of the results.

Experiment: Primary qHTS for Identification of Small Molecule Inhibitors of Huntingtin Promoter Activity; further: nearly all actives have a fitted effect of over 50% in size
Conditions: HEK293 HTT promoter firefly luciferase reporter (activity 0% = vehicle and -100% = no light), 24 h; series mostly up to 57.5 µM; activity change, negative = inhibition: at the top concentration
Summary of the method: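 HEK293 luciferase promoter-reporter cells (2,500/well) plated 24 h, then compounds added at up to 57.5 uM final for 24 h at 37 °C. Firefly luminescence by Dual-Glo, normalized to vehicle (0%) and zero RLU (-100%).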

Activity change, negative = inhibition, inactive:
O=C(NCc1ccc(Cl)cc1)c1ccc2c(c1)nnn2C1CCCC1 10.3%, COc1ccc(C)cc1NC(=O)CSc1nc(=O)n(Cc2ccco2)c2c1CCC2 -23.6%, Cc1ccc(-n2cc(-c3ccccc3)c3c(N4CCC(C)CC4)ncnc32)cc1Cl -12.6%, Cc1nc2nc(NCc3ccccc3Cl)[nH]n2c(=O)c1Cc1ccccc1 -23.8%, CCOC(=O)c1cnc2c(C)cc(C)cc2c1NCCN1CCOCC1 -30.5%, O=C(Nc1ccccc1OCc1cc(=O)n2ccccc2n1)Nc1ccccc1C(F)(F)F 10.4%, CCCSC1=NC2(CCN(C(=O)NC3CCCCC3)CC2)N=C1c1ccc(C)cc1 -11.5%, Cc1ccc(C)c(OCc2nc3ccccc3n2C)c1 19.9%, Cc1ccccc1NC(=O)CSc1nc2c(oc3ccccc32)c(=O)n1Cc1ccco1 -11%, Cc1cccc(OC(=O)CSc2nnc(-c3cccs3)o2)c1C 0.299%, Cc1ccc(-n2ncc(C(=O)N3CCN(c4ccccc4F)CC3)c2C2CCN(C(=O)OC(C)(C)C)CC2)cc1C 3.59%, CSc1ncc(Cl)c(C(=O)Nc2c(C(=O)c3ccc(Cl)cc3)oc3ccccc23)n1 -7.71%, CCOC(=O)c1c(S(=O)(=O)N2CCCC(C(=O)Nc3cccc(CC)c3)C2)c(C)n(CC)c1C (stereo unspecified) 3.63%, O=C(NCCO[N+](=O)[O-])c1cccnc1, Cc1c(NC(=O)Cc2ccc(Cl)cc2)cccc1-c1nc2cccnc2s1 0.921%, CCOc1ccc(CNC(=O)c2ccc(NC(=O)N3CCCCc4ccccc43)cc2)cc1 -8.09%, CCOC(=O)c1c(C)[nH]c(C)c1S(=O)(=O)NCC(=O)Nc1cccc(Cl)c1 -5.48%, Cc1cccc(CNC(=O)Cn2nc(C)c3nn(-c4ccc(Cl)cc4)c(C)c3c2=O)c1 -13.6%, Cc1c(CNC2CCCCCC2)c(C(=O)O)c(C)n1Cc1cccc(Cl)c1 -3.32%, Cc1ccc(Cl)c(Nc2ccccc2C(=O)O)c1Cl -0.986%, Cc1ccccc1Nc1c(-c2c[nH]c3ccccc23)nc2ccc(Cl)cn12 0.788%, Cc1cc(C)cc(NC(=O)NCc2c(-n3cccc3)sc3c2CCCC3)c1 -8.31%, Clc1cccc(CNCCCSc2nnnn2-c2ccccc2)c1 -7.61%, COC(=O)c1scc(-c2ccc(C)cc2)c1S(=O)(=O)Nc1cc(C)c(Cl)cc1OC -33.3%, Cc1cccc(N2CCN(C(=O)CCS(=O)(=O)c3ccc4c(c3)CC(=O)N4C)CC2C)c1 (stereo unspecified) -21.6%, CC(=O)N1CCN(c2csc3ccc(Cl)cc3c2=O)CC1 10.9%, Cc1ccc(NS(=O)(=O)c2ccc3c(c2)n(C)c(=O)n3C)c(C)c1 -15.5%, Cc1cccc(C(c2sc3nc(-c4ccco4)nn3c2O)N2CCOCC2)c1 (stereo unspecified) 9.25%, O=C(NCCc1cccs1)c1ccc(Cn2c(SCc3cccc(F)c3)nc3cccnc32)cc1 -13.5%, COc1ccc(-c2csc3ncnc(Nc4ccccc4)c23)cc1 -3.66%, Fc1cccc(CN2CCc3nc(Nc4ccc5c(c4)OCCO5)ncc3C2)c1F -11.6%, CCOc1ccccc1NC(=O)Cn1c(=O)oc2ccccc21 -2.63%, CCOC(=O)c1c(-c2ccccc2)oc2ccc(OCc3ccccc3Br)cc12 -12%, COc1ccc(NC(=O)Cn2cc(C(=O)c3ccc(C)c(C)c3)c(=O)c3cc(OC)ccc32)cc1 -14.9%, COc1cc(C2C=C(C(=O)O)Nc3ncnn32)ccc1O (stereo unspecified) -6.57%, CCOc1ccc2c(c1)c(=O)c(C(=O)c1ccc(CC)cc1)cn2CC(=O)Nc1ccc2c(c1)OCCO2 -15.4%, COc1cccc(NC(=O)Cn2c(=O)n(CCC(=O)NCc3ccccc3OC)c(=O)c3ccccc32)c1 -11.6%, COc1ccc(Cl)cc1NC(=O)Cn1c(=O)n2nc(-c3ccccc3)nc2c2ccccc21 3.62%, Cc1ccc(NC(=O)Cn2cc3c(n2)CCCC3)cc1Cl -5.24%, CCN1CCc2c(sc(-n3cccc3)c2C(C)NC(=O)Nc2ccc(C(=O)OC)cc2)C1 (stereo unspecified) -19.9%, COc1ccc(CNC(=O)c2nn(C)c3c2CSc2ccccc2-3)cc1 -16.3%, COc1ccc(-c2csc(-c3c(N)c(C(=O)c4ccc(OC)c(OC)c4)n4ccccc34)n2)cc1 -9.51%, COc1ccc(NC(=O)c2ccco2)cc1NC(=O)c1ccccc1[N+](=O)[O-] 2.92%, Cc1ccc(NC(=O)Cn2c(=O)n(Cc3ccccc3)c(=O)c3c(C)c(C(=O)N(C)C)sc32)c(C)c1 0%, CCN1CCN(C(=O)N[C@@H](C(=O)N[C@@H]2C(=O)N3C(C(=O)O)=C(CSc4nnnn4C)CS[C@H]23)c2ccc(O)cc2)C(=O)C1=O -1.76%, O=C1Nc2ccc(I)cc2C1=Cc1cc(Br)c(O)c(Br)c1 -3.16%, CCc1cccc(C)c1Nc1nn2c(=O)c3ccccc3nc2s1 -16.3%, COc1cc(-c2cc(OC)c3c(C)oc(C)c3c(=O)c2)ccc1OC(=O)c1cccc(C)c1 1.57%, Cc1nn(S(=O)(=O)c2ccc(F)cc2)c(C)c1S(=O)(=O)N1CCCCCC1 -8.39%, CC(NN)c1ccccc1 (stereo unspecified) -1.88% [at 25.2 µM], Cc1ccc(C(=O)Nc2c(C(=O)Nc3ccc(C)c(C)c3)sc3nc(C)cc(C)c23)cc1 -29.5%, CCCc1cc(=O)[nH]c(SCc2nc(-c3ccc(OCC)cc3)no2)n1 -3.83%, Cc1c(-c2ccccc2)c(=O)oc2c(CN3CCOCC3)c(O)ccc12 -3.62%, Cc1ccc(C2C=C(c3ccccc3)Nc3nc(NS(C)(=O)=O)nn32)cc1 (stereo unspecified) -0.812%, CCc1cccc(C)c1NC(=O)CSc1nc2ccncc2[nH]1 -36.4%, CCOc1ccc(C2C(C(=O)Nc3ccc(OC)cc3)=C(C)Nc3nc(CCCO)nn32)cc1 (stereo unspecified) -12.9%, COc1ccc(NC(=O)C2CCN(c3cc(C)nc4c(-c5ccc(Cl)cc5)c(C)nn34)CC2)cc1 -13.7%, CCOC(=O)C1CCN(Cc2cn3c(-c4ccc(OC)cc4)nnc3s2)CC1 -3.55%, Cc1ccccc1CN1CCCN(CC(=O)Nc2ccc(F)cc2)S1(=O)=O -29.3%, CCOC(=O)c1c(C)oc2nc(C)nc(NCCc3ccc(Cl)cc3)c12 -4.7%, Cc1ccc(NC(=O)Cn2c(=O)n(Cc3ccc4c(c3)OCO4)c(=O)c3oc4ccccc4c32)cc1C -12%, CC(C)c1ccc(NC(=O)Cn2nnc(C(=O)NCc3ccc4c(c3)OCO4)c2N)cc1 -10.7%, Cc1ccc(/C=C/C(=O)Nc2ccc3nc(N4CCC(C)CC4)cc(C)c3c2)cc1 -7.91%, CO[C@@]12[C@H](COC(N)=O)C3=C(C(=O)C(C)=C(N)C3=O)N1C[C@@H]1N[C@@H]12 -31.9%, Cc1cc(N2CCC(C(=O)Nc3ccc(F)cc3F)CC2)n2nc(C)c(-c3ccc(Cl)cc3)c2n1 -10.4%, CCN(c1cccc(C)c1)S(=O)(=O)c1cc2c(cc1C)n(C)c(=O)c(=O)n2C -6.19%, CCOc1ccc(NC(=O)c2sc(-n3nc(C)c(Cc4ccc(Cl)cc4)c3C)nc2C)cc1 7.34%, Cc1nnc(NC(=O)c2nc(SC(C)C)ncc2Cl)s1 -11.2%, CCc1cccc(NC(=O)c2ccc3c(c2)N(Cc2cccc(Cl)c2)C(=O)c2ccccc2S3=O)c1 (stereo unspecified) -4.03%, CCOC(=O)c1c(-c2ccc(C)cc2)csc1NC(=O)c1cc(-c2ccc(OC)cc2)on1 1.84%, Cc1cccc(N(C)C(=O)CCS(=O)(=O)c2ccc3c(c2)n(C)c(=O)c(=O)n3C)c1 -12.6%, COc1ccc(CCNS(=O)(=O)c2c(C)nc3sc(C)cn3c2=O)cc1OC -12.1%, Cc1cc(Nc2cccc(C(=O)O)c2)n2nc(C)nc2n1 2.71%, CCCn1c2ccccc2c2cnn(CC(=O)NCCN(CC)CC)c(=O)c21 -4.83%, Cc1cccc(NC(=O)CN(C)S(=O)(=O)c2ccc3c(c2)c(=O)n(C)c(=O)n3C)c1C 1.27%, CCOc1c(Cl)cc(CNc2ccc3[nH]c(=O)[nH]c3c2)cc1OC -19.2%, CCCCOc1ccc(C(=O)Nc2cc(-c3cn4cccnc4n3)ccc2OC)cc1 -2.35%, COc1ccc(-n2c(=O)c3c(c4cc(OC)ccc4n3C)n(Cc3cccc(OC)c3)c2=O)cc1 -7.07%, O=C(CCc1nc(CN2CCN(S(=O)(=O)c3ccc(Cl)cc3)CC2)no1)N1CCCCC1 -17.7%, Cc1cccc(Cn2c(SCc3ccc(C(=O)NCCc4ccccc4)cc3)nc3ccncc32)c1 -32.6%, CCc1cccc(C)c1NC(=O)Cn1ccn(-c2cccc(OC)c2)c(=O)c1=O 3.18%, O=C(CSCc1cccc(F)c1)NCc1ccccc1 58.5%, Fc1cccc(-n2ncc3c2ncn2nc(COc4ccc(Cl)cc4)nc32)c1 -1.68%, C1CCN2C[C@@H]3C[C@@H](CN4CCCC[C@@H]34)[C@H]2C1 -5.77%, CCOc1ccc(C(=O)NCCn2cc(SCC(=O)Nc3ccc4c(c3)OCCO4)c3ccccc32)cc1 -30.9%, O=C(NCCc1c[nH]c2ccccc12)c1cccnc1 21.8%, COc1cc(NC(=O)Cn2c(=O)n(Cc3ccco3)c(=O)c3sc4ccccc4c32)cc(OC)c1 -8.53%, CCN(CC)C(=O)c1sc2c(c1C)c(=O)n(-c1ccc(Cl)c(Cl)c1)c(=O)n2Cc1ccccc1C#N -12.6%, COCCCNc1oc(/C=C/c2cc(OC)c(OC)c(OC)c2)nc1C#N 10.2%, Cc1ccc(N2CCN(C(=O)c3c(C)oc4ncn(CC(C)C)c(=O)c34)CC2)c(C)c1 -4.53%, Cc1cccc(NC(=O)CSc2ncc3c(n2)-c2ccccc2N(Cc2ccc(F)cc2)S3(=O)=O)c1C -30.1%, Cc1cccc(CCNC(=O)c2ccc3c(c2)N(Cc2ccccc2F)C(=O)c2ccccc2S3)c1 -12.5%, CN(C)c1ccc(-c2nc(-c3cc4cc(Cl)ccc4oc3=O)cs2)cc1 -5.51%, Cc1ccc(Oc2c(C(F)(F)F)oc3c(CN4CCC(C)CC4)c(O)ccc3c2=O)cc1 -19.9%, CCc1cccc(NC(=O)CCC(=O)N2CCSc3ccccc32)c1 -22.9%, CCc1ccc(C(=O)c2cn(CC(=O)Nc3cc(C)ccc3C)c3nc(C)ccc3c2=O)cc1 -2.01%
